{"source": "PubChem BioAssay AID485294", "about": "(National Center for Advancing Translational Sciences (NCATS), 2010)", "note": "In all, about 370,000 compounds went through this assay and about 150 (0.041%) were called active. Inconclusive results, whose numbers are uncertain, are shown with a selection of clear calls. Calls follow the shape of the dose curve; as a rule, active = well fitted inhibition curve with a large enough effect; inconclusive = small, poorly fitted or top-dose-only effect; inactive = flat fitted curve, though single readings scatter. No potency is given beside an inconclusive call; the fits are too rough. Potency is read from the fitted curve at half-maximal effect; tags tell the direction and shape of the fitted curve."}
{"molecular_target": "Beta-lactamase (Escherichia coli (strain K12)) (UniProt P00811)", "sequence (P00811 whole entry, looked up)": "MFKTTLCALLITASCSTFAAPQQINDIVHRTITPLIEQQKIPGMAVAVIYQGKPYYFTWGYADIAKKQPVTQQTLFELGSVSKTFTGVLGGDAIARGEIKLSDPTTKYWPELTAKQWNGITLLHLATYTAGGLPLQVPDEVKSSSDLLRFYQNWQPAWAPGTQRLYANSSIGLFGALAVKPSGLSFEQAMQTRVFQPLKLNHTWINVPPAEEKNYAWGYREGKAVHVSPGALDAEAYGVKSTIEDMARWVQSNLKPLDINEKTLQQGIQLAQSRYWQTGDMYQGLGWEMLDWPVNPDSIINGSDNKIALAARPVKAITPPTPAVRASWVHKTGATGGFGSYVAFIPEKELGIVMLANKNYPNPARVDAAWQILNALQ", "test": "qHTS Inhibitors of AmpC Beta-Lactamase (assay with detergent); also: nearly all actives have a fitted effect of over 25% in size", "details": "AmpC hydrolysis of nitrocefin, absorbance 480 nm, 0.01% Triton; series mostly up to 114 µM", "procedure,_shortened": "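AmpC (5.3 nM in the dispensed reagent) in 20 mM phosphate pH 7.0 with 0.01% (detergent screen) or 0.0001% Triton X-100 was preincubated with compounds for 15 min at room temperature. Nitrocefin was then added from an 800 uM solution, and hydrolysis was followed at 480 nm.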"}
{"smiles": "CN(CC(=O)Nc1ccc(F)cc1)c1ccc(S(=O)(=O)N2CCCCC2)cc1[N+](=O)[O-]", "Potency": "inconclusive [inhibitor, full curve, poor fit]"}
{"smiles": "CC(C)c1ccc(S(=O)(=O)c2nnn3c2nc(N2CCCC2)c2sccc23)cc1", "Potency": "inactive"}
{"smiles": "COc1ccc(C2c3cc(OC)c(OC)cc3CC(=O)N2c2ccc(C)cc2)cc1", "note": "(configuration not stated)", "Potency": "inactive"}
{"smiles": "N#CC[C@H](c1ccccc1)N1CCN(Cc2ccccc2)CCC1=O", "Potency": "inactive"}
{"smiles": "Cc1ccccc1C(=O)N1CCC(C(=O)NC2CCCCC2)CC1", "Potency": "inconclusive [inhibitor, full curve, poor fit]"}
{"smiles": "COc1ccc(NC(=O)Cn2c(SCc3ccc(C)cc3)nc3cccnc32)cc1OC", "Potency": "inactive"}
{"smiles": "O=C(O)c1ccccc1NS(=O)(=O)c1cccc(N=Nc2c(O)[nH]c(=S)[nH]c2=O)c1", "Potency": "inconclusive [inhibitor, full curve]"}
{"smiles": "CCCCn1c(N)c(N(CCOC)C(=O)COC(=O)COc2ccc(CC)cc2)c(=O)[nH]c1=O", "Potency": "inconclusive [inhibitor, full curve, poor fit]"}
{"smiles": "O=C(CNC(=S)N(Cc1ccccc1Cl)C1CCCC1)NCCN1CCOCC1", "Potency": "inconclusive [inhibitor, full curve, poor fit]"}
{"smiles": "CN=c1scc(-c2ccc([N+](=O)[O-])cc2)n1/N=C/c1ccco1", "Potency": "inactive"}
{"smiles": "COc1cc(/C=C(\\C#N)C(=O)Nc2cccc3ncccc23)ccc1O", "Potency": "inconclusive [inhibitor, full curve, poor fit]"}
{"smiles": "COC(=O)c1ccc2c(=O)n(CCCCCC(=O)O)c(=O)[nH]c2c1", "Potency": "inactive"}
{"smiles": "CCOc1ccccc1NC(=O)c1cccc(S(=O)(=O)N(Cc2ccccc2)c2ccccc2OC)c1", "Potency": "inconclusive [inhibitor, partial curve]"}
{"smiles": "CC(=O)Nc1ccc(S(=O)(=O)N2CCN(C(C)CCc3ccccc3)CC2)cc1", "note": "(configuration not stated)", "Potency": "inconclusive [inhibitor, single point]"}
{"smiles": "O=c1[nH]c(=O)n(-c2ccc(F)cc2)c(O)c1C=Nc1ccccc1N1CCCC1", "Potency": "inconclusive [inhibitor, single point]"}
{"smiles": "CC1(C)CC(=O)C=C(NC2CC(C)(C)NC(C)(C)C2)C1", "Potency": "inconclusive [inhibitor, full curve, poor fit]"}
{"smiles": "COc1ccccc1NC(=O)COC(=O)C1CC2C=CC1C2", "note": "(configuration not stated)", "Potency": "inactive"}
{"smiles": "COC(=O)c1nnn(-c2nonc2N)c1CSc1nnc(C)s1", "Potency": "inconclusive [inhibitor, single point]"}
{"smiles": "COC(=O)c1sccc1NC(=O)C1C2C=CC(C2)C1C(=O)O", "note": "(configuration not stated)", "Potency": "inactive"}
{"smiles": "CC(=O)N1CCN(C(=O)CCc2nc3sc4c(c3c(=O)[nH]2)CCCC4)CC1", "Potency": "inconclusive [inhibitor, full curve, poor fit]"}
{"smiles": "CCN(CCn1cccn1)Cc1nc(-c2ccccc2)no1", "Potency": "inactive"}
{"smiles": "Cc1cc(NC(=O)CCN2CCN(C/C=C/c3ccccc3)CC2)ccc1Br", "Potency": "inconclusive [inhibitor, partial curve, poor fit]"}
{"smiles": "S=c1[nH]cnc2sc(Nc3ccccc3)nc12", "Potency": "inconclusive [inhibitor, single point]"}
{"smiles": "O=c1cc(CN2CCN(c3ccccc3O)CC2)nc2sccn12", "Potency": "inconclusive [inhibitor, full curve, poor fit]"}
{"smiles": "O=C1N/C(=C/c2ccsc2)C(=O)N1c1ccccc1", "Potency": "inactive"}
{"smiles": "CCc1cc(C(=O)N2CCN(c3ncccn3)CC2)sc1C", "Potency": "inconclusive [inhibitor, full curve, poor fit]"}
{"smiles": "CC1CN(S(=O)(=O)c2ccc(CN3C(=O)c4cccnc4C3=O)cc2)c2ccccc2O1", "note": "(configuration not stated)", "Potency": "inactive"}
{"smiles": "COc1ccc(C(=O)NC2CC2)cc1OC1CCN(C(C)CSC)CC1", "note": "(configuration not stated)", "Potency": "inconclusive [inhibitor, single point]"}
{"smiles": "COc1ccc(CNC(=O)c2ccc(Cl)c(NC3=NC4CS(=O)(=O)CC4S3)c2)cc1", "note": "(configuration not stated)", "Potency": "inconclusive [inhibitor, full curve, poor fit]"}
{"smiles": "Cc1cccc(NC(=O)Cn2cc(C(=O)C3CCCCC3)c3ccccc32)c1", "Potency": "inactive"}
{"smiles": "Cc1ccc(S(=O)(=O)NCCC(=O)N(C)Cc2cccs2)cc1", "Potency": "inconclusive [inhibitor, single point]"}
{"smiles": "CCN(C(=O)COC(=O)C1=COCCO1)c1c(N)n(Cc2ccccc2)c(=O)[nH]c1=O", "Potency": "inconclusive [inhibitor, partial curve]"}
{"smiles": "COc1ccc2[nH]c(C)c(-c3csc(N)n3)c2c1", "Potency": "inconclusive [inhibitor, full curve, poor fit]"}
{"smiles": "CCN1C(=O)[C@H]2[C@@H](c3ccc(C)cc3)N3C(=O)N(c4ccccc4)C(=O)[C@@]3(CC)[C@H]2C1=O", "Potency": "inconclusive [inhibitor, partial curve, poor fit]"}
{"smiles": "COc1ccc2cc(C(=O)N3CCN(c4ccccc4OC)CC3)[nH]c2c1", "Potency": "inconclusive [inhibitor, partial curve, poor fit]"}
{"smiles": "COC(=O)c1sc(NC(=O)c2cc(C)on2)nc1C", "Potency": "inconclusive [inhibitor, partial curve, poor fit]"}
{"smiles": "Cc1ccc(C2OC34CCCCCC3C(C#N)(C(=N)O4)C2(C#N)C#N)cc1", "note": "(configuration not stated)", "Potency": "inconclusive [inhibitor, full curve, poor fit]"}
{"smiles": "COc1cc(/C=C2\\SC(=Nc3c(C)n(C)n(-c4ccccc4)c3=O)NC2=O)ccc1O", "Potency": "inconclusive [inhibitor, partial curve, poor fit]"}
{"smiles": "Cc1cc(NC(=O)CS(=O)(=O)c2cn(C)c3ccccc23)no1", "Potency": "inconclusive [inhibitor, full curve, poor fit]"}
{"smiles": "CN(C(=O)CSc1nnc(C(F)(F)F)n1N)C1CCS(=O)(=O)C1", "note": "(configuration not stated)", "Potency": "inconclusive [inhibitor, single point]"}
{"smiles": "NC(N)=NC(N)=Nc1ccc(O)cc1", "Potency": "inactive"}
{"smiles": "CCCCN1/C(=C/c2ccc3ccccc3[n+]2CC)Sc2ccccc21", "Potency": "inconclusive [inhibitor, single point]"}
{"smiles": "CC(CSc1nnnn1-c1ccccc1)Cn1c(N2CCN(C)CC2)nc2c1c(=O)[nH]c(=O)n2C", "note": "(configuration not stated)", "Potency": "inconclusive [inhibitor, partial curve]"}
{"smiles": "C=CCCC(=O)N1CCCC(Cc2cccc(Cl)c2)(C(=O)OCC)C1", "note": "(configuration not stated)", "Potency": "inconclusive [inhibitor, partial curve, poor fit]"}
{"smiles": "Clc1ccccc1Cn1nnc2c(NCC3CC3)ncnc21", "Potency": "inconclusive [inhibitor, full curve]"}
{"smiles": "Cc1cc(C(F)(F)F)n2ncc(-c3ccc(F)cc3)c2n1", "Potency": "inactive"}
{"smiles": "COc1ccc(CN2CCN(C(C)C(=O)N(C)Cc3cccc(F)c3)CC2)cc1OC", "note": "(configuration not stated)", "Potency": "inactive"}
{"smiles": "Cc1ccc(S(=O)(=O)NCc2ccncc2)cc1C", "Potency": "inactive"}
{"smiles": "CCN(CC)CCC(c1cc(OC)c(OC)c(OC)c1)c1c(OC)cc(OC)c2c(C)cc(=O)oc12", "note": "(configuration not stated)", "Potency": "inactive"}
{"smiles": "O=S(=O)(NCc1csc(-c2cccs2)n1)c1ccccc1", "Potency": "inactive"}
{"smiles": "CCCCn1nc2cc(C(=O)NCc3ccccc3)ccc2c1OCC", "Potency": "inactive"}
{"smiles": "CSc1ccc(CC(=O)N2CCC(n3nccc3NC(=O)C3CC3)CC2)cc1", "Potency": "inconclusive [inhibitor, partial curve]"}
{"smiles": "O=C(Nc1ccc(Br)cc1)NC1CCCCCCC1", "Potency": "inconclusive [inhibitor, full curve, poor fit]"}
{"smiles": "CCCC(C)C(=O)NC1CCSC1=O", "note": "(configuration not stated)", "Potency": "inconclusive [inhibitor, partial curve, poor fit]"}
{"smiles": "CCCCc1c(O)nc(SCCC(=O)O)[nH]c1=O", "Potency": "inconclusive [inhibitor, single point]"}
{"smiles": "Cc1ccc(C)c(NC(=O)CN2CCSc3ccc(S(=O)(=O)N4CCCC4)cc32)c1", "Potency": "inactive"}
{"smiles": "Cc1ccc(S(=O)(=O)N2CCCCC2)cc1NC(=O)CSc1ccc2c(c1)OCCO2", "Potency": "inconclusive [inhibitor, full curve, poor fit]"}
{"smiles": "CCOC(=O)Cc1c(C)c2c(C)[nH]nc2oc1=O", "Potency": "inconclusive [inhibitor, single point]"}
{"smiles": "CCOC(=O)/C(C#N)=C/c1c(Oc2cc(C)cc(C)c2)nc2ccccn2c1=O", "Potency": "inconclusive [inhibitor, single point]"}
{"smiles": "O=C(NC(=S)N1CCN(c2ccc(F)cc2)CC1)C12CC3CC(CC(C3)C1)C2", "Potency": "inconclusive [inhibitor, partial curve, poor fit]"}
{"smiles": "NC(=O)c1nn(-c2ccccc2)nc1N", "Potency": "inactive"}
{"smiles": "CCC(=O)Oc1ccc(C(=O)Nc2ccccc2C(=O)NCC(C)C)cc1", "Potency": "inconclusive [inhibitor, full curve, poor fit]"}
{"smiles": "Cn1c2ccccc2c2c(C(=O)N3CCN(C(=O)c4ccco4)CC3)cn(C3CCCCC3)c(=O)c21", "Potency": "inconclusive [inhibitor, full curve, poor fit]"}
{"smiles": "COc1ccc(-n2ncc3c(NCC4CCCO4)ncnc32)cc1", "note": "(configuration not stated)", "Potency": "inconclusive [inhibitor, full curve]"}
{"smiles": "Cc1ccccc1S(=O)(=O)Cc1ccc(C(=O)N2CCN(c3cccc(Cl)c3)CC2)o1", "Potency": "inconclusive [inhibitor, partial curve]"}
{"smiles": "O=C(O)C1C2C=CC(O2)C1C(=O)NCc1ccc2c(c1)OCO2", "note": "(configuration not stated)", "Potency": "inconclusive [inhibitor, partial curve, poor fit]"}
{"smiles": "O=c1c2sccc2[nH]c(=S)n1-c1ccccc1", "Potency": "inactive"}
